According to the supplement of paper PMC9588766:
Structures can show the parent of a compound that is named as a salt. Whole data set: some 1,900 compounds, median “cell viability of compound + 1 nM pemigatinib relative to pemigatinib-only (DMSO) wells” near 0.95, cut for the lowest 2% near 0.22. The list shows a part of the results.

The molecules below were run on PDC-DUC18828 (assay: cell viability of compound + 1 nM pemigatinib relative to pemigatinib-only (DMSO) wells (fraction); PDC-DUC18828 is a patient-derived cholangiocarcinoma cell line; higher = less growth inhibition). Details: first compound 1 µM; pemigatinib concentration 1 nM; 72 h.
Procedure: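 Selleck Bioactive library screen in the patient-derived FGFR2 fusion-positive ICC cell line PDC-DUC18828 (500 cells/well). Each compound was tested at 1 uM with 1 nM pemigatinib, in triplicate, for 72 h. Viability was read by CellTiter-Glo and normalised to plate DMSO controls. Value is the paper's averaged normalised viability.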

Point of comparison: O=C(O)c1cccnc1Nc1cccc(C(F)(F)F)c1 [Niflumic acid] + CCN1C(=O)N(c2c(F)c(OC)cc(OC)c2F)Cc2cnc3[nH]c(CN4CCOCC4)cc3c21 [pemigatinib], cell viability 0.839. Against it:
- NC(=O)c1nc(F)cnc1O [Favipiravir (T-705)] + CCN1C(=O)N(c2c(F)c(OC)cc(OC)c2F)Cc2cnc3[nH]c(CN4CCOCC4)cc3c21 [pemigatinib] — higher, 0.964
- CC(C)n1nc(-c2ccc3oc(N)nc3c2)c2c(N)ncnc21 + CCN1C(=O)N(c2c(F)c(OC)cc(OC)c2F)Cc2cnc3[nH]c(CN4CCOCC4)cc3c21 [pemigatinib] — lower, 0.196
- O=C(O)c1cc(C(F)(F)F)ccc1N1CC[C@H](OCc2ccccn2)C1 + CCN1C(=O)N(c2c(F)c(OC)cc(OC)c2F)Cc2cnc3[nH]c(CN4CCOCC4)cc3c21 [pemigatinib] — higher, 0.997
- N[C@@H](Cc1c[nH]c2ccc(O)cc12)C(=O)O [5-hydroxytryptophan (5-HTP)] + CCN1C(=O)N(c2c(F)c(OC)cc(OC)c2F)Cc2cnc3[nH]c(CN4CCOCC4)cc3c21 [pemigatinib] — higher, 0.93
- CC(=O)Nc1nc2c(Oc3cc(-c4ccc(C(F)(F)F)cc4)ncn3)cccc2s1 + CCN1C(=O)N(c2c(F)c(OC)cc(OC)c2F)Cc2cnc3[nH]c(CN4CCOCC4)cc3c21 [pemigatinib] — higher, 0.993
- Cn1cc(-c2cnn3c(N)c(Br)c([C@@H]4CCCNC4)nc23)cn1 + CCN1C(=O)N(c2c(F)c(OC)cc(OC)c2F)Cc2cnc3[nH]c(CN4CCOCC4)cc3c21 [pemigatinib] — higher, 0.9
- O=C(O)COCCN1CCN(C(c2ccccc2)c2ccc(Cl)cc2)CC1 (centres undefined) [Cetirizine DiHCl] + CCN1C(=O)N(c2c(F)c(OC)cc(OC)c2F)Cc2cnc3[nH]c(CN4CCOCC4)cc3c21 [pemigatinib] — higher, 0.984
- C=C1C[C@@]2(O)O[C@@]3(C[C@H]2C(C)C)[C@@H](C)CC[C@@H]13 [Curcumol] + CCN1C(=O)N(c2c(F)c(OC)cc(OC)c2F)Cc2cnc3[nH]c(CN4CCOCC4)cc3c21 [pemigatinib] — higher, 0.937
- C=CC(=O)Nc1cccc(Nc2nc(Nc3ccc(Oc4ccnc(C(=O)NC)c4)cc3)ncc2F)c1 + CCN1C(=O)N(c2c(F)c(OC)cc(OC)c2F)Cc2cnc3[nH]c(CN4CCOCC4)cc3c21 [pemigatinib] — higher, 0.899
- CCCSc1nc(N[C@@H]2C[C@H]2c2ccc(F)c(F)c2)c2nnn([C@@H]3C[C@H](OCCO)[C@@H](O)[C@H]3O)c2n1 [Ticagrelor] + CCN1C(=O)N(c2c(F)c(OC)cc(OC)c2F)Cc2cnc3[nH]c(CN4CCOCC4)cc3c21 [pemigatinib] — higher, 0.892
- COc1ccc(-c2ccc3ncc4c(c3c2)n(-c2ccc(N3CCNCC3)c(C(F)(F)F)c2)c(=O)n4C)cn1 + CCN1C(=O)N(c2c(F)c(OC)cc(OC)c2F)Cc2cnc3[nH]c(CN4CCOCC4)cc3c21 [pemigatinib] — lower, 0.0142
- CC(=O)O[C@]1(C(C)=O)CC[C@H]2[C@@H]3C=C(Cl)C4=CC(=O)[C@@H]5C[C@@H]5[C@]4(C)[C@H]3CC[C@@]21C [Cyproterone Acetate] + CCN1C(=O)N(c2c(F)c(OC)cc(OC)c2F)Cc2cnc3[nH]c(CN4CCOCC4)cc3c21 [pemigatinib] — higher, 0.955
- CC(C)c1cc(-c2n[nH]c(=O)n2-c2ccc3c(ccn3C)c2)c(O)cc1O [Ganetespib (STA-9090)] + CCN1C(=O)N(c2c(F)c(OC)cc(OC)c2F)Cc2cnc3[nH]c(CN4CCOCC4)cc3c21 [pemigatinib] — lower, 0.318
- N[C@H]1C[C@@H]1c1ccc(-c2cccc(O)c2)cc1 + CCN1C(=O)N(c2c(F)c(OC)cc(OC)c2F)Cc2cnc3[nH]c(CN4CCOCC4)cc3c21 [pemigatinib] — higher, 0.993
- CC(CCc1ccccc1)NCC(O)c1ccc(O)c(C(N)=O)c1 (centres undefined) [Labetalol HCl] + CCN1C(=O)N(c2c(F)c(OC)cc(OC)c2F)Cc2cnc3[nH]c(CN4CCOCC4)cc3c21 [pemigatinib] — higher, 1
- CCOC(=O)[C@H](CCc1ccccc1)N[C@@H](C)C(=O)N1Cc2ccccc2C[C@H]1C(=O)O [Quinapril HCl] + CCN1C(=O)N(c2c(F)c(OC)cc(OC)c2F)Cc2cnc3[nH]c(CN4CCOCC4)cc3c21 [pemigatinib] — higher, 0.965
- Cc1oncc1C(=O)Nc1ccc(C(F)(F)F)cc1 [Leflunomide] + CCN1C(=O)N(c2c(F)c(OC)cc(OC)c2F)Cc2cnc3[nH]c(CN4CCOCC4)cc3c21 [pemigatinib] — higher, 0.954
- CC1CC(OC(=O)C(O)c2ccccc2)CC(C)(C)C1 (centres undefined) [Cyclandelate] + CCN1C(=O)N(c2c(F)c(OC)cc(OC)c2F)Cc2cnc3[nH]c(CN4CCOCC4)cc3c21 [pemigatinib] — higher, 0.966
- CC1C(=O)OC2C(O)C34C5CC(C(C)(C)C)C36C(OC(=O)C6O)OC4(C(=O)O5)C12O (centres undefined) [Ginkgolide B] + CCN1C(=O)N(c2c(F)c(OC)cc(OC)c2F)Cc2cnc3[nH]c(CN4CCOCC4)cc3c21 [pemigatinib] — higher, 0.99
- CN(C)/N=N/c1[nH]cnc1C(N)=O [Dacarbazine] + CCN1C(=O)N(c2c(F)c(OC)cc(OC)c2F)Cc2cnc3[nH]c(CN4CCOCC4)cc3c21 [pemigatinib] — higher, 0.924
- Cc1onc(-c2c(Cl)cccc2Cl)c1C(=O)N[C@@H]1C(=O)N2[C@@H]1SC(C)(C)[C@@H]2C(=O)O [Dicloxacillin Sodium] + CCN1C(=O)N(c2c(F)c(OC)cc(OC)c2F)Cc2cnc3[nH]c(CN4CCOCC4)cc3c21 [pemigatinib] — higher, 1.01
- Cc1cc(NC(=O)Nc2ccc(N(C)C)cc2)c2cc(F)cc(F)c2n1 + CCN1C(=O)N(c2c(F)c(OC)cc(OC)c2F)Cc2cnc3[nH]c(CN4CCOCC4)cc3c21 [pemigatinib] — higher, 0.939
- Cn1cc(-c2ccc3ncc(Cc4ccc5ncccc5c4)n3n2)cn1 + CCN1C(=O)N(c2c(F)c(OC)cc(OC)c2F)Cc2cnc3[nH]c(CN4CCOCC4)cc3c21 [pemigatinib] — higher, 1.01
- Nc1nc2c(ncn2[C@@H]2O[C@H](CO)[C@@H](O)[C@H]2O)c(=O)[nH]1 [Guanosine] + CCN1C(=O)N(c2c(F)c(OC)cc(OC)c2F)Cc2cnc3[nH]c(CN4CCOCC4)cc3c21 [pemigatinib] — higher, 0.943
- CC(C)OC(=O)[C@H](C)N[P@](=O)(OC[C@H]1O[C@@H](n2ccc(=O)[nH]c2=O)[C@](C)(F)[C@@H]1O)Oc1ccccc1 [Sofosbuvir (PSI-7977, GS-7977)] + CCN1C(=O)N(c2c(F)c(OC)cc(OC)c2F)Cc2cnc3[nH]c(CN4CCOCC4)cc3c21 [pemigatinib] — higher, 0.92
- O=C1[C@H](Cc2ccc(O)cc2)N2C(=O)CCN(C(=O)NCc3ccccc3)[C@H]2CN1Cc1cccc2ccccc12 + CCN1C(=O)N(c2c(F)c(OC)cc(OC)c2F)Cc2cnc3[nH]c(CN4CCOCC4)cc3c21 [pemigatinib] — higher, 0.951
- CCn1c2ccccc2c2cc(Nc3ccnc(NCCCN4CCOCC4)n3)ccc21 + CCN1C(=O)N(c2c(F)c(OC)cc(OC)c2F)Cc2cnc3[nH]c(CN4CCOCC4)cc3c21 [pemigatinib] — higher, 0.985
- CC1(C)S[C@@H]2[C@H](NC(=O)[C@H](NC(=O)N3CCNC3=O)c3ccccc3)C(=O)N2[C@H]1C(=O)O [Azlocillin sodium salt] + CCN1C(=O)N(c2c(F)c(OC)cc(OC)c2F)Cc2cnc3[nH]c(CN4CCOCC4)cc3c21 [pemigatinib] — higher, 0.915
- O=C(N/N=C/c1cc(O)c(O)cc1O)c1cc2ccccc2cc1O [Dyngo-4a] + CCN1C(=O)N(c2c(F)c(OC)cc(OC)c2F)Cc2cnc3[nH]c(CN4CCOCC4)cc3c21 [pemigatinib] — higher, 0.924
- CC(C(=O)O)c1ccc2c(c1)Cc1cccnc1O2 (centres undefined) [Pranoprofen] + CCN1C(=O)N(c2c(F)c(OC)cc(OC)c2F)Cc2cnc3[nH]c(CN4CCOCC4)cc3c21 [pemigatinib] — higher, 0.985
- Clc1ccc(NN=C(c2ccccc2)c2ccccn2)nc1 + CCN1C(=O)N(c2c(F)c(OC)cc(OC)c2F)Cc2cnc3[nH]c(CN4CCOCC4)cc3c21 [pemigatinib] — lower, 0.33
- C[N+]1(C)[C@@H]2C[C@@H](OC(=O)C(O)(c3cccs3)c3cccs3)C[C@H]1[C@@H]1O[C@@H]12 [Tiotropium Bromide hydrate] + CCN1C(=O)N(c2c(F)c(OC)cc(OC)c2F)Cc2cnc3[nH]c(CN4CCOCC4)cc3c21 [pemigatinib] — higher, 0.982
- CC(=O)Nc1ccccc1 [Acetanilide] + CCN1C(=O)N(c2c(F)c(OC)cc(OC)c2F)Cc2cnc3[nH]c(CN4CCOCC4)cc3c21 [pemigatinib] — higher, 0.903
- O=C(/C=C/c1ccc2ccccc2n1)c1ccncc1 + CCN1C(=O)N(c2c(F)c(OC)cc(OC)c2F)Cc2cnc3[nH]c(CN4CCOCC4)cc3c21 [pemigatinib] — higher, 1.02
- Cc1cc(C(N)=O)ccc1-n1c(CCC(=O)O)ccc1-c1ccc(-n2ccnc2)cc1 + CCN1C(=O)N(c2c(F)c(OC)cc(OC)c2F)Cc2cnc3[nH]c(CN4CCOCC4)cc3c21 [pemigatinib] — higher, 0.909
- COC(=O)C[C@H](NC(=O)[C@H](C)NC(=O)[C@@H](NC(=O)OCc1ccccc1)C(C)C)C(=O)CF + CCN1C(=O)N(c2c(F)c(OC)cc(OC)c2F)Cc2cnc3[nH]c(CN4CCOCC4)cc3c21 [pemigatinib] — higher, 0.945
- COC(=O)C1=C(C)NC(C)=C(C(=O)OCCN2CCN(C(c3ccccc3)c3ccccc3)CC2)C1c1cccc([N+](=O)[O-])c1 (centres undefined) [Manidipine] + CCN1C(=O)N(c2c(F)c(OC)cc(OC)c2F)Cc2cnc3[nH]c(CN4CCOCC4)cc3c21 [pemigatinib] — higher, 0.888
- COC(=O)C1=C(C)NC(C)=C(C(=O)OCCN2CCN(C(c3ccccc3)c3ccccc3)CC2)C1c1cccc([N+](=O)[O-])c1 (centres undefined) [Manidipine 2HCl] + CCN1C(=O)N(c2c(F)c(OC)cc(OC)c2F)Cc2cnc3[nH]c(CN4CCOCC4)cc3c21 [pemigatinib] — higher, 0.935
